# Data from the supplement of paper PMC11417369.
# ± gives the standard deviation of the averaged measurements. This is one part of the list.
# System: PfAP2-I AP2 domain 3 (GST-tagged)
# Assay: gcPBM binding intensity (ln(normalized median fluorescence intensity)); higher = stronger DNA binding
# Method in brief: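 Plasmodium falciparum DNA-binding domains carrying a GST tag were expressed in E. coli and applied for 1 h, at about 25 μg on average, to an Agilent 4 × 180k array. The array held primer-extended double-stranded 36-bp intergenic genomic probes together with negative controls, and binding took place in 1× PBS with 1% milk, 0.2 mg/ml BSA, 0.5% salmon testes DNA and 0.03% Triton X-100. An Alexa488 anti-GST antibody detected bound protein, and the array was scanned at 488 nm. Binding intensity is taken as the highest Masliner-normalised natural-log median intensity across replicate spots of either probe orientation.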
row,Sequence,gcPBM binding intensity (ln)
1,AAAGATATAAATTACTGTACTAATGAAATTGGTAAA [XGTACX_site3582],7.67 ± 0.28
2,ATATTAAAATTTTAATGTACATGCGTATGTAGGAAT [XGTACX_site1673],8.48 ± 0.38
3,TATATTATATTTTTATGTACTTATTTATTTTGTTTC [XGTACX_site6145],7.81 ± 0.49
4,AACATATATTTTTAATGTACAAGGTTGTAAAGAACT [XGTACX_site1405],8.03 ± 0.45
5,ATGTATATATTCAATTGTACATGTTATATTTACACA [XGTACX_site1125],7.76 ± 0.33
6,ATTGTATTAAAATGCACACATATCAAGAGGAATTTT [CACACA_site283],9.095 ± 0.064
7,TGTAAAATATAAAAAGTGCATTTCTTTTAATATGAT,9.96 ± 0.19
8,AAAGAATAATTAAATACACACATATTGCAGTAAAAA [CACACA_site7201],8.99 ± 0.28
9,AATATAATATAATGCACACATAAACAAAAAAAAAAT [CACACA_site1304],10.9 ± 0.96
10,TTCATTTGAAAACTGTGTACTTAAAAATATACATAT [XGTACX_site176],7.82 ± 0.29
11,ATATATTTAAATAAATGTACAAATCATAAATTCAAG [XGTACX_site1417],7.63 ± 0.44
12,TTATTAGAAAAATGCACACCAAAAAAAAAAAAAAAA [CACACA_site2522],8.89 ± 0.25
13,ATACATATACACATATGTACATATGAAAAGAAAAAT [XGTACX_site6445],8.06 ± 0.76
14,TTTTTATTTTATAATATATTCCTTTTCCTTTCTTTC [CACACA_negctrl_site245],7.35 ± 0.79
15,TACATATATATAAATACACACACACCCACCTTATAA [CACACA_site9346],8.34 ± 0.16
16,TATATATATTGTGTATGTACATATATATAAATATTG [XGTACX_site433],8.2 ± 0.57
17,ATATACATATATATATGTACTGAAAAGAAAAGAATT [XGTACX_site150],7.82 ± 0.57
18,CATAAATACATACATACACACATATTTATATTTATA [CACACA_site7071],7.84 ± 0.54
19,ATAATTATATATATATGTACATATTATATATATATA [XGTACX_site4526],8.955 ± 0.049
20,TGTTTTTAAATTTAAATCAAAAAATAAAATAAAATA [GTGCAC_negctrl_site355],7.66 ± 0.54
21,AAGATAACAAGTAATCAATCTAATTATTAATTATAT [CACACA_negctrl_site1713],7.12 ± 0.6
22,AAAAATATGTGATAATGTACTTTTCATTTTTATTTT [XGTACX_site8544],7.49 ± 0.45
23,TATAAAAAGCATAACACACACATGTCAATATAAATA [CACACA_site6648],7.84 ± 0.52

row,Sequence,gcPBM binding intensity (ln)
1,TATTGAAACCCACACGAACACACGTATTTCATAAAC [CACACA_site251],7.77 ± 0.67
2,ATGGACATTTTATAAATCACAATGGATATTTTATAA [CACACA_negctrl_site1830],7.5 ± 0.5
3,TACTTTTATATAGAAAGTACATACAATTCATAGAAT [XGTACX_site2182],7.62 ± 0.54
4,TTTTTTTTTTTTTTGTGTACATATAATGCACATTAT [XGTACX_site6505],11.1 ± 0.93
5,TATACTCATTTTTATACACACTTGTTTTATAAAACG [CACACA_site4561],7.92 ± 0.67
6,ATATATATATATATATGTACATATGTATGTGTTTGT [XGTACX_site397],9.28 ± 0.38
7,CTATATGTATAAAGTTGTACAGTTTTTCAAAGTTAA [XGTACX_site6652],7.91 ± 0.22
8,AAATTTATTATGAACATACACACAAAAAAAAAAAGT [CACACA_site2053],8.2 ± 0.52
9,TACATCATCTATAAGGTGCATTTTAGTTCTATTAAA,10.3 ± 0.58
10,TATATATTTTATTATTGTACGAATTATTTATTTTAC [XGTACX_site8105],7.6 ± 0.42
11,TTTTTTCTAATATCTTTGCCTTTTTCTTTATTTATT [CACACA_negctrl_site1053],7.65 ± 0.82
12,TGTATAAAACATGGGTGTACTGAACTCAATCATATA [XGTACX_site1215],7.84 ± 0.4
13,AAAATAACAAAATAAAGTACTTTTAAAAGATATAAT [XGTACX_site7632],7.87 ± 0.6
14,AAAAGTAACAAAGCTACACACATTTAAATAAACATA [CACACA_site1421],7.59 ± 0.57
15,TTTTTAATTCAAACAATAATATGTTATATTTCAAAT [TGCATGCA_negctrl_site27],7.51 ± 0.19
16,GATTTTCTAATTTCTACACACATATAAGAATATTCA [CACACA_site7340],7.8 ± 0.54
17,TTTATTTCTATATTTACATGCAAAGGGTTAGTTATA [TGCATGCA_site983],7.63 ± 0.47
18,AAGAAAAAGAATAGACGGACAACTAATATAAAATAT [XGTACX_site7905],7.79 ± 0.73
19,GATCTTTTTTTTCTTACTTTACAATTTTTTTTTTAC [XGTACX_negctrl_site101],7.83 ± 0.94
20,TTTTTTTTTTTCATGTGTACATATATTTTCACTTTA [XGTACX_site4475],8.21 ± 0.62
21,GTTTTACACAGACATGCATGTGAAAATTTGATGGTA [TGCATGCA_site308],7.87 ± 0.56
22,TATCATCATGTATGTACACACATACCTATATTATGT [CACACA_site6768],7.78 ± 0.47
23,AATTAAATTACTTATACACACATAAAATGTCTGTAT [CACACA_site997],7.76 ± 0.34

row,Sequence,gcPBM binding intensity (ln)
1,AAATTATGAACATATTGTACATATATATATATATAT [XGTACX_site8269],9.12 ± 0.26
2,CATGTATGTACCATGGTGCAACAATATTTTTAACAA [GTGCAC_site9597],10.3 ± 0.38
3,ATTATATAAATTATATGTACGTATTTTTTTTTTTTT [XGTACX_site1908],8.1 ± 0.085
4,CAAATAAAAATAAGGAGTACAATTAAAAAAGGAAGG [XGTACX_site4366],8.03 ± 0.64
5,GAAAAGAAAAATAAACGTACATAAATATTAACATTA [XGTACX_site8213],7.47 ± 0.56
6,AAAATAAAAAAGTGTACACATATTAAAATGTATTTA [CACACA_site4424],8.15 ± 0.11
7,TCATTGTTAAGCTGAAGTACTTATAATTACATCGAG [XGTACX_site6340],7.75 ± 0.35
8,AATATATTTTAATATACACACATATCTGCTCTTTAA [CACACA_site6130],7.67 ± 0.5
9,TAAAATTATATAAAGGAACACACATTTTATTTTATT [CACACA_site8423],7.66 ± 0.57
10,TATTAGCATGTTATTACACACAATATAAAATATATA [CACACA_site1401],7.86 ± 0.38
11,TGTCAATCATATAAATGTACATTTTAAATGAGGTGT [XGTACX_site7391],7.94 ± 0.59
12,TTTTATAAATATTTTTGTACACATTTAAATATTATT [XGTACX_site4973],7.86 ± 0.45
13,TTTTCATATATTTATTGTACATATTACATATATAAT [XGTACX_site2425],8.04 ± 0.5
14,AGAGAGAACGGTATAACATGCAATAAATTTCAGAAG [TGCATGCA_site423],7.75 ± 0.76
15,TTTTTTTAATAAAAGTGTACCAAATTATATACACAT [XGTACX_site6811],7.8 ± 0.49
16,ATTTATAAATCAAAGTGTACATATGTTTTATTTTTT [XGTACX_site804],7.82 ± 0.53
17,ATCGGTAATATTAACACACACATTTATTTATATTTA [CACACA_site6638],7.96 ± 0.58
18,TTTTATTATATGGAGGTGCATATATAATAATATAAT [GTGCAC_site9477],10.7 ± 0.71
19,ATGTATGTAATAAAAAGTACATATGTTCATAATAAA [XGTACX_site842],7.86 ± 0.51
20,TTCTTTTTAAATATACTAATTATGTATAAAACAGAA [GTGCAC_negctrl_site131],7.67 ± 0.39
21,TTTTTTTTTTTTTTAACACACATATAAATATTTTTC [CACACA_site6985],8.11 ± 0.49
22,AAATGGAGTTAATATTGTACATATATATATATATAT [XGTACX_site5452],9.33 ± 0.69
23,TTTTTCTATTCCATTCAACACACAAAAATGTATGCT [CACACA_site8268],7.89 ± 0.64

row,Sequence,gcPBM binding intensity (ln)
1,AAAGTTTTAAGAAAATGTACATAAGTATACATATAT [XGTACX_site1293],7.61 ± 0.68
2,ATTCTTGTTATATAAGGTACAGAACAAAATATAAAA [XGTACX_site5510],8.04 ± 0.63
3,TTTGGGATAAAACAAAGTACTAACAAAATATATAAT [XGTACX_site8240],7.96 ± 0.63
4,TGCATTTTACTTGTTACACACATATAAAATTAACCA [CACACA_site7387],7.91 ± 0.44
5,TACAAGTATAAATAAGCACACATGTGTATATGTACA [CACACA_site7911],8.15 ± 0.3
6,TTAGAAGGGATTAAAGTGCAAAATAGGATTAGAGTA,10.085 ± 0.007
7,TCTTATTTAATTAAACAAAAGAAAAAGAAAGAAAAG [CACACA_negctrl_site1569],7.71 ± 0.49
8,TTTTTTTTTCCTTCTTGTACATATTATATATACATA [XGTACX_site5988],8.03 ± 0.61
9,TGGAACGTAATAAAATGTACATACGTTTTTCATATG [XGTACX_site6229],7.52 ± 0.64
10,GACAAATTAATCGATTGTACACAATTTGTTTCGTTG [XGTACX_site35],7.83 ± 0.66
11,AACACATACATATATGCACACATTTTATTCCATTAT [CACACA_site2834],9.46 ± 0.26
12,TTTTTTTTTTTTTGTACATGCAAATATTATGAACAC [TGCATGCA_site571],8.28 ± 0.53
13,TTCACATATATATAACGTACATTATTATTATTCTGA [XGTACX_site6006],7.82 ± 0.42
14,AATATAACTTTTTGCACACTTAATTTTTTTTTTTAA [CACACA_site3365],9.79 ± 0.11
15,TAACAAAAAGCACTTAGTACATATATATATATATAT [XGTACX_site1099],9.33 ± 0.27
16,AGGTAATATACTAAATGTACAGAAAAACGAATTTTT [XGTACX_site2977],7.8 ± 0.85
17,TATATTTATTATAACACACACATATTTATATTATAG [CACACA_site6628],7.76 ± 0.35
18,TTTCTTTTTAAATATATACACACCGGGTGTACATAT [CACACA_site3345],7.88 ± 0.35
19,AATGAAATAATACAATGTACGTTAAAAAAAAATAAA [XGTACX_site7928],7.78 ± 0.59
20,GTATTATTTTATGATGCATGTGTATTTCATATATGC [TGCATGCA_site660],7.74 ± 0.49
